In PubChem BioAssay AID686978 (National Center for Advancing Translational Sciences (NCATS), 2013):
Out of some 420,000 compounds screened, about 64,000 (15%) were called active. This list was built around the results that the source calls inconclusive (neither active nor inactive); the mix of calls is not that of the screen. Calls come from the whole dose curve; as a rule, active = well fitted inhibition curve with a large enough effect; inconclusive = small, poorly fitted or top-dose-only effect; inactive = flat fitted curve, though single readings scatter. No potency is given beside an inconclusive call; the fits are too rough.

Experiment: qHTS for Inhibitors of human tyrosyl-DNA phosphodiesterase 1 (TDP1): qHTS in cells in absence of CPT; note: nearly all actives have a fitted effect of over 55% in size
Settings: DT40 Tdp1-/- hTDP1 cells, no CPT, ATP luminescence, 48 h; activity change, negative = growth inhibition: at 46.2 µM (top of the series) unless noted
How it was run: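 DT40 Tdp1-/-;hTDP1 cells, no CPT (DMSO vehicle only), 400 cells/well; compounds pin-transferred; ≥48 hr, 37 °C; CellTiter-Glo 30 min RT dark, luminescence read.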
% is set by controls: 0 for no effect and ±100 for the full control effect; potency is the fitted concentration of half-maximal effect; tags give direction and shape of the fitted curve.

SMILES	Potency	activity change, negative = growth inhibition
CN(C)CCCN1c2ccccc2Sc2ccc(C(F)(F)F)cc21	active: 23.7 µM	
OC1CCC(Nc2ncnc3sccc23)CC1 (centres undefined)	inconclusive [inhibitor, single point]	
COC(=O)[C@@]12C[C@@H](CC(=O)NCc3cccs3)C(=O)N(Cc3ccco3)C1=CCC(C)(C)C2	active: 18.4 µM	
COc1ccc(N2CCN(Cc3oc(CO)cc(=O)c3O)CC2)cc1		inactive: -16%
CCn1nnc2cc(C(=O)Nc3cccc(Cl)c3C)ccc21	active: 16.4 µM	
Cc1nc2cnc(N(C)C)nc2n(Cc2cccs2)c1=O		inactive: -28.8%
CC1CN(S(=O)(=O)c2cccc(C(=O)N(CCc3ccccc3)Cc3ccccc3)c2)CC(C)O1 (centres undefined)	active: 5.8 µM	
O=C(NCc1ccc(Cl)cc1)c1ccc2ccccc2n1		inactive: -13.1%
Cc1ccc(/C=C(/NC(=O)c2ccccc2)C(=O)NC(Cc2c[nH]c3ccccc23)C(=O)O)cc1 (centres undefined)		inactive: 1.25%
O=C(CC1SC(=Nc2ccccc2)N(CCCO)C1=O)Nc1ccc(Cl)cc1 (centres undefined)		inactive: -22.6%
O=C(NCc1ccc2c(c1)CCN2C(=O)c1ccccc1)Nc1cc(F)ccc1F	inconclusive [inhibitor, single point]	
Nc1cc(S(=O)(=O)N2CCOCC2)ccc1Oc1cccc(Br)c1	inconclusive [inhibitor, single point]	
c1ccc(CCNc2ccc3ncc(-c4cccc5ccccc45)n3n2)nc1	inconclusive [inhibitor, single point]	
CCNS(=O)(=O)c1ccc(Br)c(C(=O)OC(C)C(=O)NCC2CCCCC2)c1 (centres undefined)	inconclusive [inhibitor, single point]	
CN1CCN(c2ncnc3c2ncn3[C@H]2CN(Cc3ccncc3)C[C@@H](CO)O2)CC1		inactive: -25.3%
Cc1ccc(-n2nnnc2Sc2nc([N+](=O)[O-])nn2C)cc1	inconclusive [inhibitor, single point]	
Cc1ccc2c(c1)N(C)/C(=C/c1cccc[n+]1CCO)S2	active: 1.16 µM	
CC(C)c1cccc(-c2ccc3c(c2)S(=O)(=O)c2cccc(C(=O)NCc4ccccc4Cl)c2C3=O)c1	active: 6.51 µM	
COc1ccc(C)cc1S(=O)(=O)NCC(c1cccs1)S(=O)(=O)c1ccc(C)cc1 (centres undefined)	inconclusive [inhibitor, single point]	
CCCCCC(O)CCc1n[nH]c(=S)n1-c1ccccc1 (centres undefined)		inactive: -5.16%

SMILES	Potency	activity change, negative = growth inhibition
CC1=C(C)C(=O)C(N2CCOCC2)=CC1=O	active: 14.6 µM	
COc1ccc2c(c1OC)C(=O)N(c1ccc(C)cc1)C2		inactive: -20.7%
CCC(C)NC(=O)NC(=O)CSc1nnc(-c2ccccc2F)n1C1CC1 (centres undefined)	inconclusive [inhibitor, partial curve]	
Cc1ccc(-c2csc3ncnc(NCCN4CCOCC4)c23)cc1	active: 23.1 µM	
COc1ccc(-c2noc(-c3ccc(N4CCCC4)c([N+](=O)[O-])c3)n2)cc1		inactive: -21.9%
CCOC(=O)C1C(c2ccc(OC)cc2)N(C)OC1(O)C(F)(F)F (centres undefined)		inactive: -6.59%
Cc1cccc(C)c1NC(=S)NC(=O)c1ccccc1F	inconclusive [inhibitor, single point]	
COc1ccc(-c2nc3scc(CCNS(=O)(=O)c4ccccc4F)n3n2)cc1	inconclusive [inhibitor, single point]	
COc1cc(O)c(C(CCN2CCCC2)c2ccc3c(c2)OCO3)c(OC)c1 (centres undefined)	active: 23.1 µM	
O=C(CN1CCCCC1)NC(=O)NC1CCCC1		inactive: 2.25%
COc1cccc(CCC(=O)N2CCC(n3nccc3NC(=O)C3CCOC3)CC2)c1 (centres undefined)		inactive: 0.676%
Cc1ccc(OCC(=O)Nc2ccc(Cl)cc2)c(-n2nc3ccccc3n2)c1	inconclusive [inhibitor, partial curve]	
CC(=O)Nc1ccc(-c2nnc(SCc3c(C)cc(C)cc3C)n2C)cc1		inactive: -26.1%
O=c1[nH]cnc2c1cnn2Cc1ccccc1		inactive: 0.43%
Cc1ccc(OCC(=O)NCC2(N3CCOCC3)CCCCC2)cc1C	active: 16.4 µM	
O=CC(=O)c1ccc(Br)cc1	inconclusive [inhibitor, single point]	
CCOC(=O)C1CCN(C(=O)c2cccc(S(=O)(=O)N(CC)c3ccccc3)c2)CC1	inconclusive [inhibitor, partial curve]	
CCOc1ccc(NS(=O)(=O)c2ccc(-c3cnc(C4CC4)o3)cc2)cc1	active: 9.2 µM	
COc1cccc(-c2nnc(Nc3nc4c(F)cccc4s3)o2)c1	active: 23.1 µM	
